Among all 240,000 compounds or so, about 20 (0.008%) were called active. The shares of active, inactive and inconclusive entries below differ from those in the screen. Calls come from the whole dose curve; as a rule, active = well fitted inhibition curve with a large enough effect; inconclusive = small, poorly fitted or top-dose-only effect, or effect the other way; inactive = flat fitted curve, though single readings scatter. No potency is given beside an inconclusive call; the fits are too rough.
Biological target: Alpha-galactosidase A (Homo sapiens) (UniProt P06280)
Assay: qHTS Assay for Inhibitors and Activators of Human alpha-Galactosidase From Spleen Homogenate
Settings: 4MU-alpha-Gal fluorescence, 40 min; series mostly up to 80 µM
How it was run: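 Inhibition or activation of alpha-galactosidase in human spleen homogenate is scored by 4-MU fluorescence after 40 min at 37C, pH 5.0, with 1 mM substrate. AC50s come from concentration-response fitted to the Hill equation.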
Potency is the fitted concentration of half-maximal effect; tags give direction and shape of the fitted curve.

UniProt P06280, sequence (P06280 whole entry, looked up): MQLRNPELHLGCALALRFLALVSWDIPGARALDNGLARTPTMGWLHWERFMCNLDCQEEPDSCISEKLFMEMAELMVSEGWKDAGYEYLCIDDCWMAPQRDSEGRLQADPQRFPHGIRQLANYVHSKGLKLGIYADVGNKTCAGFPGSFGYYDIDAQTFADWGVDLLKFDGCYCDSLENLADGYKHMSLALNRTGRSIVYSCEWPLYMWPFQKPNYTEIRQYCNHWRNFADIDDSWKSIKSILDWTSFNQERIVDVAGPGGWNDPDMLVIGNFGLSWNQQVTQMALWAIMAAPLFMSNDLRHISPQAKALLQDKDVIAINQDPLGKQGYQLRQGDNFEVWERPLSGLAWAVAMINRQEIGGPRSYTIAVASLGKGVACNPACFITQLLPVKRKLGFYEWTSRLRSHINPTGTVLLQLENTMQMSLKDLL

Question: How did the Potency turn out when `O=C(NCCCCc1ccccc1)c1ccc(Br)o1` was run?
Answer: inconclusive [activator, partial curve, poor fit]

Question: For `Oc1ccc(C=Nc2ccccc2-c2nc3ccccc3[nH]2)c(O)c1`, which Potency is on record?
Answer: inconclusive [activator, partial curve]

Question: For `COc1cccc(Oc2cn[nH]c2-c2ccc(O)cc2O)c1`, which Potency is on record?
Answer: inconclusive [inhibitor, partial curve]

Question: Which Potency does the source give for `CC(C)CC(=O)Nc1ccc(Nc2ccccc2)cc1` here?
Answer: inactive

Question: Which Potency does the source give for `COc1ccc2cc3cc(C(=O)NCc4cccnc4)oc3nc2c1` here?
Answer: inconclusive [activator, partial curve]

Question: For `O=C(c1c(Cl)cccc1Cl)N1CCCCCC1`, which Potency is on record?
Answer: inconclusive [inhibitor, partial curve, poor fit]

Question: For `COc1ccccc1-n1cnnc1SCC(=O)Nc1ncc(Cl)cc1Cl`, which Potency is on record?
Answer: inactive

Question: `c1cc(Nc2ncnc3sc4c(c23)CCC4)ccn1` was tested. Which Potency did it give?
Answer: inconclusive [activator, partial curve]

Question: For `O=C(c1ccco1)N1CCN(Cc2nc(Cc3ccccc3)no2)CC1`, which Potency is on record?
Answer: inconclusive [inhibitor, full curve, poor fit]

Question: Which Potency does the source give for `NC(=O)c1cccc2c(=O)oc3ccccc3c12` here?
Answer: inconclusive [activator, full curve]

Question: `CC(C)C1OC2(C)OC(=N)C1(C#N)C(C#N)(C#N)C2c1ccccc1` (centres undefined) was tested. Which Potency did it give?
Answer: inconclusive [activator, single point]

Question: For `O=c1oc2c(CN3CCOCC3)c(O)ccc2c2c1CCC2`, which Potency is on record?
Answer: inconclusive [activator, partial curve]

Question: `O=c1c(-c2cccs2)nc2cnc(Oc3cccc(Cl)c3)nc2n1C[C@H]1CCCO1` was tested. Which Potency did it give?
Answer: inconclusive [activator, single point]

Question: `O=C(O)Cn1c(SCc2cccc3ccccc23)nc2ccccc21` was tested. Which Potency did it give?
Answer: inactive

Question: `CN(C)/C=C(/C(=O)c1ccc(Cl)cc1Cl)S(=O)(=O)c1ccccc1` was tested. Which Potency did it give?
Answer: inconclusive [activator, single point]

Question: `COc1ccc(C2CC(c3ccccc3)=NN2c2ccc(Cl)c(C(=O)O)c2)cc1` (centres undefined) was tested. Which Potency did it give?
Answer: inconclusive [activator, partial curve]

Question: How did the Potency turn out when `CN1C(=O)SC(Nc2ccccc2)C1=O` (centres undefined) was run?
Answer: inactive

Question: How did the Potency turn out when `O=c1c2ccccc2oc2ccccc12` was run?
Answer: inconclusive [activator, single point]

Question: Which Potency does the source give for `NC1=NC(=O)C(Cc2cccc(Cl)c2)S1` (centres undefined) here?
Answer: inconclusive [inhibitor, single point]

Question: With `O=C(CCl)N(Cc1cccc([N+](=O)[O-])c1)c1cccc(Cl)c1` as the compound, how does the Potency read?
Answer: inactive

Question: How did the Potency turn out when `Nc1nc2nc(-c3ccc(F)cc3)cc(C(F)(F)F)n2n1` was run?
Answer: inconclusive [activator, full curve, poor fit]

Question: Which Potency does the source give for `Cn1cnnc1SC1CCCCC1NS(=O)(=O)c1ccc(Cl)cc1` (centres undefined) here?
Answer: inactive

Question: Which Potency does the source give for `CC(=O)N1c2ccccc2C(=O)C1N1CCCCC1` (centres undefined) here?
Answer: inconclusive [inhibitor, single point]

Question: With `CCn1c(SCC(=O)Nc2nc3c(s2)CCCC3)nnc1-c1ccccc1` as the compound, how does the Potency read?
Answer: inconclusive [inhibitor, partial curve]

Question: With `Cc1cccc(C)c1` as the compound, how does the Potency read?
Answer: inactive

Question: With `CCOC(=O)Nc1c2ccccc2nc2ccccc12` as the compound, how does the Potency read?
Answer: inconclusive [activator, partial curve]

Question: For `CC(C)c1ccc(/C=N/NC(=O)CN(c2cccc(Cl)c2Cl)S(C)(=O)=O)cc1`, which Potency is on record?
Answer: inconclusive [inhibitor, single point]

Question: With `Cc1ccc(C2N(C)c3ccccc3-c3nc4ccccc4n32)o1` (centres undefined) as the compound, how does the Potency read?
Answer: inconclusive [activator, partial curve]

Question: `Cc1oc(C(=O)O)cc1COc1ccc2c3c(c(=O)oc2c1)CCC3` was tested. Which Potency did it give?
Answer: inconclusive [activator, single point]

Question: `Cc1ccc(S(=O)(=O)NC(=O)c2ccc(-c3ccc(C)c4ccccc34)o2)cc1` was tested. Which Potency did it give?
Answer: inconclusive [activator, single point]

Question: `O=C(O)Cn1nnnc1SCC(=O)Nc1ccc(OC(F)(F)F)cc1` was tested. Which Potency did it give?
Answer: inconclusive [inhibitor, full curve]

Question: How did the Potency turn out when `Nc1ncc(Br)cc1S(=O)(=O)NCCC(=O)N1CCN(c2ccccn2)CC1` was run?
Answer: inactive

Question: For `O=C(O)CC/C(=N/Nc1ncc(C(F)(F)F)cc1Cl)C(=O)O`, which Potency is on record?
Answer: inactive

Question: `Cc1nc2ncnn2c(N2CCCC(C(=O)Nc3ccc4c(c3)CCC4)C2)c1C` (centres undefined) was tested. Which Potency did it give?
Answer: inactive

Question: How did the Potency turn out when `Cc1cc2c(C)c(C)c(=O)[nH]c2cc1N` was run?
Answer: inconclusive [activator, partial curve]

Question: `CC(C)(C)Cc1nnc(NS(=O)(=O)c2ccccc2)s1` was tested. Which Potency did it give?
Answer: inactive

Question: `Cc1ccc(C2CC(c3ccccc3C)n3nc(N)nc3N2)cc1` (centres undefined) was tested. Which Potency did it give?
Answer: inconclusive [inhibitor, partial curve, poor fit]

Question: For `Cc1cc(C)cc(Nc2ccc(C(=O)O)cc2N)c1`, which Potency is on record?
Answer: inconclusive [inhibitor, partial curve, poor fit]

Question: For `CCOC(=O)c1cc2c(=O)n3ccccc3nc2n(CCCOC)c1=NC(=O)c1cccnc1`, which Potency is on record?
Answer: inconclusive [activator, single point]

Question: How did the Potency turn out when `CN(C)C(=O)c1coc2nc3ccccc3nc12` was run?
Answer: inconclusive [activator, single point]

Question: With `COCCn1c(-c2ccco2)nc2nc3ccccc3nc21` as the compound, how does the Potency read?
Answer: inconclusive [activator, partial curve]

Question: With `COc1ccc(C2C=C(C)Nc3nc(SC)nn32)cc1` (centres undefined) as the compound, how does the Potency read?
Answer: inconclusive [activator, single point]

Question: For `CC1CN(C(=O)c2cc3c(=O)n4ccccc4nc3s2)CC(C)O1` (centres undefined), which Potency is on record?
Answer: inconclusive [activator, partial curve]

Question: For `CCN(CC)Cc1c(O)c(Cl)cc2c3c(c(=O)oc12)CCCC3`, which Potency is on record?
Answer: inconclusive [activator, partial curve]

Question: `CC(C)NC[C@H](O)COc1ccc(CC(N)=O)cc1` was tested. Which Potency did it give?
Answer: inconclusive [inhibitor, full curve]

Question: Which Potency does the source give for `Cc1c(O)ccc2c3c(c(=O)oc12)CCCC3` here?
Answer: inconclusive [activator, partial curve]

Question: With `CN1CCc2cccc3c2[C@H]1Cc1ccc(O)c(O)c1-3` as the compound, how does the Potency read?
Answer: inactive

Question: Which Potency does the source give for `O=C(Nc1cccc(-c2cn3cccnc3n2)c1)c1ccco1` here?
Answer: inconclusive [activator, partial curve]

Question: For `COc1ccc(-n2nc(C(=O)NCC(=O)NCC3CCCO3)c3ccccc3c2=O)cc1` (centres undefined), which Potency is on record?
Answer: inconclusive [inhibitor, partial curve]

Question: How did the Potency turn out when `C=CCn1c(N)c(C(=O)OC(C)(C)C)c2nc3ccccc3nc21` was run?
Answer: inconclusive [activator, partial curve]

Question: For `Nc1c(S(=O)(=O)c2cccs2)c2nc3ccccc3nc2n1CCc1ccccc1`, which Potency is on record?
Answer: inconclusive [activator, single point]

Question: Which Potency does the source give for `COCCCn1c(=NC(C)=O)c(C#N)cc2c(=O)n3cccc(C)c3nc21` here?
Answer: inconclusive [activator, partial curve]

Question: Which Potency does the source give for `Nc1c(Cl)cc(Cl)cc1C(=O)OCC(=O)N1CCOCC1` here?
Answer: inconclusive [activator, partial curve]

Question: How did the Potency turn out when `CCOC(=O)CSc1nnc(-c2ccccc2OC)o1` was run?
Answer: inconclusive [inhibitor, single point]

Question: With `N#Cc1c(-c2ccc(Cl)cc2)c2c([nH]c1=O)-c1ccccc1OC2` as the compound, how does the Potency read?
Answer: inconclusive [activator, partial curve]

Question: For `COCCCNC(=O)c1c(N)n(-c2ccccc2)c2nc3ccccc3nc12`, which Potency is on record?
Answer: inconclusive [activator, single point]

Question: Which Potency does the source give for `Nc1ccc(-c2nc3ccc(N)cc3[nH]2)cc1` here?
Answer: inconclusive [activator, single point]

Question: For `COc1ncc2nc(-c3ccc(F)cc3)c(=O)n(C)c2n1`, which Potency is on record?
Answer: inconclusive [activator, single point]

Question: With `N#Cc1c(NCCCO)nc(-c2ccco2)c2c1CCCC2` as the compound, how does the Potency read?
Answer: inconclusive [activator, partial curve]

Question: How did the Potency turn out when `CCC(=O)Oc1ccc2c(c1)OC1(OC(C)=O)OC(C)CC1=C2C` (centres undefined) was run?
Answer: inconclusive [activator, partial curve]

Question: Which Potency does the source give for `COc1ccc(-c2cc(C(F)(F)F)n3ncc(C(=O)NCc4ccco4)c3n2)cc1` here?
Answer: inconclusive [activator, single point]

Question: How did the Potency turn out when `O=c1c2ccccc2oc2nc(C3CCCCC3)n(Cc3ccco3)c(=O)c12` was run?
Answer: inconclusive [inhibitor, single point]

Question: For `Cc1cc(Cl)c(S(=O)(=O)N2CCN(c3ccc(F)cc3)CC2)cc1OCC(N)=O`, which Potency is on record?
Answer: inconclusive [inhibitor, single point]

Question: Which Potency does the source give for `CSCCC(NC(C)=O)C(=O)Oc1ccc2c3c(c(=O)oc2c1)CCCC3` (centres undefined) here?
Answer: inconclusive [activator, partial curve]

Question: `C/C(=N\NC(=O)C(C)Oc1ccc([N+](=O)[O-])cc1)c1ccccn1` (centres undefined) was tested. Which Potency did it give?
Answer: inactive

Question: Which Potency does the source give for `N#Cc1ccc(-c2ccc3c(c2)OCO3)nc1SCC(=O)OCc1ccccc1` here?
Answer: inconclusive [activator, single point]

Question: `Cn1c(C(=O)N2CCc3ccccc3C2)cc2c(=O)n3ccccc3nc21` was tested. Which Potency did it give?
Answer: inconclusive [activator, partial curve]

Question: `COC(=O)[C@@]1(Cc2ccc(OC)cc2)[C@H]2c3cc(C(=O)N(C)C)n(CCF)c3C[C@H]2CN1C(=O)c1ccccc1` was tested. Which Potency did it give?
Answer: inactive

Question: With `O=[N+]([O-])c1cccc(Nc2c3ccccc3nc3ccccc23)c1` as the compound, how does the Potency read?
Answer: inconclusive [activator, partial curve]

— PubChem BioAssay AID2107 (National Center for Advancing Translational Sciences (NCATS), 2009)
